# Measurements: the supplement of paper PMC8728848
# The other results are listed elsewhere or left out.
# Tests used:
# Experiment in all cases: glycan array binding signal (z-score within array); higher = stronger binding
# Details in all cases: glycan notation: IUPAC condensed, linker removed
# [1] = molecular target: Fuc(a1-3)[Gal3S(b1-4)]GlcNAc
# Outline: (§1)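 From the Consortium for Functional Glycomics database, 3228 arrays were curated, keeping only those whose protein sequence was available. Binding is given as a within-array Z-score averaged across arrays sharing a protein sequence and across linkers. Negative Z-scores can be read as non-binding.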
# [2] = molecular target: Fuc(a1-3)[Gal3S(b1-4)]GlcNAc6S
# Outline: as §1
# [3] = molecular target: Fuc(a1-3)[GalNAc(b1-4)]GlcNAc
# Outline: as §1
# [4] = molecular target: Fuc(a1-4)GlcNAc
# Outline: as §1
# [5] = molecular target: Fuc(b1-3)GlcNAc
# Outline: as §1
# [6] = molecular target: Gal(a1-2)Gal
# Outline: as §1
# [7] = molecular target: Gal(a1-3)Gal
# Outline: as §1
# [8] = molecular target: Gal(a1-3)Gal(b1-3)GlcNAc
# Outline: as §1
# [9] = molecular target: Gal(a1-3)Gal(b1-3)GlcNAc(b1-2)Man(a1-3)[Gal(a1-3)Gal(b1-3)GlcNAc(b1-2)Man(a1-6)]Man(b1-4)GlcNAc(b1-4)GlcNAc
# Outline: as §1
# [10] = molecular target: Gal(a1-3)Gal(b1-3)[Fuc(a1-4)]GlcNAc(b1-2)Man(a1-3)[Gal(a1-3)Gal(b1-3)[Fuc(a1-4)]GlcNAc(b1-2)Man(a1-6)]Man(b1-4)GlcNAc(b1-4)GlcNAc
# Outline: as §1
# [11] = molecular target: Gal(a1-3)Gal(b1-4)Glc
# Outline: as §1
# [12] = molecular target: Gal(a1-3)Gal(b1-4)GlcNAc
# Outline: as §1
# [13] = molecular target: Gal(a1-3)Gal(b1-4)GlcNAc(b1-3)GalNAc
# Outline: as §1
# [14] = molecular target: Gal(a1-3)Gal(b1-4)[Fuc(a1-3)]GlcNAc
# Outline: as §1
# [15] = molecular target: Gal(a1-3)Gal(b1-4)[Fuc(a1-3)]GlcNAc(b1-2)Man(a1-3)[Gal(a1-3)Gal(b1-4)[Fuc(a1-3)]GlcNAc(b1-2)Man(a1-6)]Man(b1-4)GlcNAc(b1-4)GlcNAc
# Outline: as §1
# [16] = molecular target: Gal(a1-3)GalNAc
# Outline: as §1
# [17] = molecular target: Gal(a1-3)[Gal(a1-4)]Gal(b1-4)GlcNAc
# Outline: as §1
# [18] = molecular target: Gal(a1-4)Gal(b1-3)GlcNAc(b1-2)Man(a1-3)[Gal(a1-4)Gal(b1-3)GlcNAc(b1-2)Man(a1-6)]Man(b1-4)GlcNAc(b1-4)GlcNAc
# Outline: as §1
# [19] = molecular target: Gal(a1-4)Gal(b1-4)Glc
# Outline: as §1
# [20] = molecular target: Gal(a1-4)Gal(b1-4)GlcNAc
# Outline: as §1
# [21] = molecular target: Gal(a1-4)Gal(b1-4)GlcNAc(b1-2)Man(a1-3)[Gal(a1-4)Gal(b1-4)GlcNAc(b1-2)Man(a1-6)]Man(b1-4)GlcNAc(b1-4)GlcNAc
# Outline: as §1
# [22] = molecular target: Gal(a1-4)Gal(b1-4)GlcNAc(b1-3)Gal(b1-4)Glc
# Outline: as §1
# [23] = molecular target: Gal(a1-4)GlcNAc
# Outline: as §1
# [24] = molecular target: Gal(a1-6)Glc
# Outline: as §1
# [25] = molecular target: Gal(b1-2)Gal
# Outline: as §1
# [26] = molecular target: Gal(b1-3)Gal
# Outline: as §1
# [27] = molecular target: Gal(b1-3)Gal(b1-4)GlcNAc
# Outline: as §1
# [28] = molecular target: Gal(b1-3)Gal(b1-4)GlcNAc(b1-2)Man(a1-3)[Gal(b1-3)Gal(b1-4)GlcNAc(b1-2)Man(a1-6)]Man(b1-4)GlcNAc(b1-4)GlcNAc
# Outline: as §1
# [29] = molecular target: Gal(b1-3)GalNAc
# Outline: as §1
# [30] = molecular target: Gal(b1-3)GalNAc(a1-3)[Fuc(a1-2)]Gal(b1-4)Glc
# Outline: as §1
# [31] = molecular target: Gal(b1-3)GalNAc(a1-3)[Fuc(a1-2)]Gal(b1-4)GlcNAc
# Outline: as §1
# [32] = molecular target: Gal(b1-3)GalNAc(b1-3)Gal(a1-4)Gal(b1-4)Glc
# Outline: as §1
# [33] = molecular target: Gal(b1-3)GalNAc(b1-4)Gal(b1-4)Glc
# Outline: as §1
# [34] = molecular target: Gal(b1-3)GalNAc(b1-4)[Neu5Ac(a2-3)]Gal(b1-4)Glc
# Outline: as §1
# [35] = molecular target: Gal(b1-3)GlcNAc
# Outline: as §1
# [36] = molecular target: Gal(b1-3)GlcNAc(a1-6)Gal(b1-4)GlcNAc
# Outline: as §1
# [37] = molecular target: Gal(b1-3)GlcNAc(b1-2)Man(a1-3)[Gal(b1-3)GlcNAc(b1-2)Man(a1-6)]Man(b1-4)GlcNAc(b1-4)GlcNAc
# Outline: as §1
binder,measurement,setting,value
"Pp2-A2 (Arabidopsis thaliana), Q07098 (protein) MPSNGDLDRQIEQLMECKPLSEADVRTLCDQARAILVEEYNVQPVKCPVTVCGDIHGQFYDLIELFRIGGNAPDTNYLFMGDYVDRGYYSVETVSLLVALKVRYRDRLTILRGNHESRQITQVYGFYDECLRKYGNANVWKYFTDLFDYLPLTALIESQVFCLHGGLSPSLDTLDNIRSLDRIQEVPHEGPMCDLLWSDPDDRCGWGISPRGAGYTFGQDIAAQFNHNNGLSLISRAHQLVMEGFNWCQDKNVVTVFSAPNYCYRCGNMAAILEIGENMEQNFLQFDPAPRQVEPDTTRKTPDYFL",glycan array binding signal (z-score),[1],-0.461
same,glycan array binding signal (z-score),[2],4.09
same,glycan array binding signal (z-score),[3],-0.38
same,glycan array binding signal (z-score),[4],-0.494
same,glycan array binding signal (z-score),[5],-0.497
same,glycan array binding signal (z-score),[6],-0.488
same,glycan array binding signal (z-score),[7],-0.44
same,glycan array binding signal (z-score),[8],0.174
same,glycan array binding signal (z-score),[9],0.909
same,glycan array binding signal (z-score),[10],1.26
same,glycan array binding signal (z-score),[11],0.067
same,glycan array binding signal (z-score),[12],-0.481
same,glycan array binding signal (z-score),[13],-0.431
same,glycan array binding signal (z-score),[14],-0.568
same,glycan array binding signal (z-score),[15],-0.298
same,glycan array binding signal (z-score),[16],-0.326
same,glycan array binding signal (z-score),[17],-0.228
same,glycan array binding signal (z-score),[18],-0.249
same,glycan array binding signal (z-score),[19],0.09
same,glycan array binding signal (z-score),[20],-0.667
same,glycan array binding signal (z-score),[21],-0.565
same,glycan array binding signal (z-score),[22],-0.404
same,glycan array binding signal (z-score),[23],-0.833
same,glycan array binding signal (z-score),[24],0.298
same,glycan array binding signal (z-score),[25],0.056
same,glycan array binding signal (z-score),[26],-0.297
same,glycan array binding signal (z-score),[27],-0.29
same,glycan array binding signal (z-score),[28],0.268
same,glycan array binding signal (z-score),[29],-0.192
same,glycan array binding signal (z-score),[30],-0.465
same,glycan array binding signal (z-score),[31],-0.096
same,glycan array binding signal (z-score),[32],-0.113
same,glycan array binding signal (z-score),[33],-0.181
same,glycan array binding signal (z-score),[34],-0.205
same,glycan array binding signal (z-score),[35],-0.517
same,glycan array binding signal (z-score),[36],-0.59
same,glycan array binding signal (z-score),[37],0.577
